We go through 18 compounds from PubChem BioAssay AID1745853 (National Center for Advancing Translational Sciences (NCATS), 2022).

The other results are listed elsewhere or left out. Further columns of the screen follow, without active or inactive calls.

Common to all, as to test: Primary Screen for Target Class Profiling of Small Molecule Inhibitors of Methyltransferases
Assay [1] has as its target Glycine N-methyltransferase (Homo sapiens) (UniProt Q14749). The note with it: purified enzyme, MTase-Glo SAH luminescence; measured here: GNMT inhibition; at 40 µM; stronger effect = lower value. An excerpt:
(§1) PI: Matthew D. Hall Ph.D. and Quinlin M. Hanson Ph.D.
(§2) National Center for Advancing Translational Sciences (NCATS)
(§3) National Institute of Health (NIH), Rockville, MD
(§4) Target class profiling (TCP) is a chemical biology approach amenable to investigating understudied biological targets. TCP is achieved by developing a generalizable assay platform and applying it to screen a curated set of compound libraries against representative members of a target class. Small molecule methyltransferases (SMMTase) are a subclass of methyltransferase that act on metabolites to modulate signaling pathways, metabolize xenobiotics, or balance the available methyl pool. We screened four curated libraries totaling 27,574 unique compounds against the SMMTases nicotinamide N-methyltransferase (NNMT), phenylethanolamine N-methyltransferase (PNMT), histamine N-methyltransferase (HNMT), glycine N-methyltransferase (GNMT), catechol O-methyltransferase (COMT), and guanidinoacetate N-methyltransferase (GAMT). The data generated by this TCP can be leveraged for informed tool molecule development. For example, in the associated publication we identified a chemotype of HNMT-selective inhibitors. Additionally, we identified a putative SMMTase-selective inhibitor with potential as a tool molecule for studying broader methyltransferase biology.
(§5) High-through put screening assays were developed at the National Center for Advancing Translational Science (NCATS) for the enzymes NNMT, PNMT, HNMT, GNMT, COMT, and GAMT. Enzymatic activity was measured as a function of SAM cofactor conversion using the MTase Glo kit (Promega) for all enzymes. All assays were performed in 1536-well format with substrates and SAM concentrations at KM values. Enzyme concentration and assay timing were optimized for 10-20% SAM conversion. Initial screening of 27,574 compounds was done as single-point assays using the highest compound concentration (40 uM). […] These compounds were replated in 11-point dose response and assayed against NNMT, PNMT, HNMT, GNMT, COMT, GAMT, and a counter-assay. The IC50 and efficacy (maximal response) values were determined for each dose-response curve. These values are also accounted for in the area under the curve (AUC) values.
(§6) PROTOCOL TABLE (as described by Inglese J, Shamu CE and Guy RK. 2007)
(§7) SEQUENCE No. (e.g., 1, 2, 3, etc.); […] (e.g., Cells, Incubation, Reagent, etc.); VALUE; DESCRIPTION.
(§8) 1; Reagent; 2 uL; SMMTase Enzyme (2x) in reaction buffer, columns 1- 48.
(§9) 2; Reagent; 1 uL; SAM (4x) in reaction buffer, columns 1-48.
(§10) 3; Controls; 23 nL; DMSO in column 4; sinefungin in DMSO (0 uM - 40 uM) in 7-point 1:2 dilution series (n = 2) in column 2.
(§11) 4; Compounds; 23 nL; Columns 5-48.
(§12) 5; Reagent; 1 uL; Substrate (4x) in reaction buffer, columns 2-48.
(§13) 6; Time; 20-30 min; Incubation.
(§14) 7; Reagent; 1 uL; MTase-Glo reagent (5X), columns 1-48.
(§15) 8; Time; 30 min; Incubation.
(§16) 9; Reagent; 5 uL; MTase-Glo Detection reagent, columns 1-48.
(§17) 10; Time; 30 min; Incubation, luminescence evolution.
(§18) 11; Detection; Luminescence; ViewLux uHTS Microplate Imager (PerkinElmer).
(§19) NOTES (numbers refer to Sequence numbers above)
(§20) 1, 2, 5. White Medium Binding Greiner 1536-well plates (Cat #789175-F, Greiner Bio-One, Monroe, NC); Reaction buffer: 50 mM Tris, pH 8.0, 3 mM MgCl2, 1 mM EDTA, 50 mM NaCl, 1 mM DTT, and 0.1 mg/mL BSA. Evaporation was prevented by covering assay plates with metal lids containing holes to allow gas diffusion.
(§21) 1. Six SMMTase were profiled: HNMT, GNMT, PNMT, COMT, NNMT, GAMT
(§22) 5. The corresponding substrate was used for each enzyme: HNMT - 5.3 uM Histamine; GNMT - >500 uM Glycine; PNMT - 16.2 uM Norephinephrine; COMT - 13.7 uM Norephinephrine; NNMT - 3.8 uM Nicotinamide; GAMT - 2.5 uM Guanidinoacetate.6, 8, 10. Room temperature
(§23) 6. Final reaction conditions: 10 nM COMT, 5 uM SAM, 15 uM norepinephrine, 50 mM Tris, pH 8.0, 3 mM MgCl2, 1 mM EDTA, 50 mM NaCl, 1 mM DTT, and 0.1 mg/mL BSA; refer to tables 2 and S1 for specific timing.
8. […]

The target of assay [2] is Guanidinoacetate N-methyltransferase (Homo sapiens) (UniProt Q14353). The note with it: purified enzyme, MTase-Glo SAH luminescence; measured here: GAMT inhibition; at 40 µM; stronger effect = lower value.
Excerpt: as §1, §2, §3, §4, §5, §6, §7, §8, §9, §10, §11, §12, §13, §14, §15, §16, §17, §18, §19, §20, §21, §22, §23
8. […]

The target of assay [3] is Histamine N-methyltransferase (Homo sapiens) (UniProt P50135). Conditions: purified enzyme, MTase-Glo SAH luminescence; measured here: HNMT inhibition; at 40 µM; stronger effect = lower value.
Excerpt: as §1, §2, §3, §4, §5, §6, §7, §8, §9, §10, §11, §12, §13, §14, §15, §16, §17, §18, §19, §20, §21, §22, §23
8. […]

For assay [4], the target named is Nicotinamide N-methyltransferase (Homo sapiens) (UniProt P40261). The note with it: purified enzyme, MTase-Glo SAH luminescence; measured here: NNMT inhibition; at 40 µM; stronger effect = lower value.
Excerpt: as §1, §2, §3, §4, §5, §6, §7, §8, §9, §10, §11, §12, §13, §14, §15, §16, §17, §18, §19, §20, §21, §22, §23
8. […]

Assay [5] concerns the target Phenylethanolamine N-methyltransferase (Homo sapiens) (UniProt P11086). Conditions: purified enzyme, MTase-Glo SAH luminescence; measured here: PNMT inhibition; at 40 µM; stronger effect = lower value.
Excerpt: as §1, §2, §3, §4, §5, §6, §7, §8, §9, §10, §11, §12, §13, §14, §15, §16, §17, §18, §19, §20, §21, §22, §23
8. […]
% is set by controls: 0 for no effect and ±100 for the full control effect.

`COc1cccc(N2CCN(C(=O)c3ccc4c(=O)nc5c(-c6ccccc6)n[nH]n5c4c3)CC2)c1`: the activity change, negative = inhibition in assay [1] was -8.01%; in assay [2], 0.966%; in assay [3], 2.45%; in assay [4], 0.039%; in assay [5], 1.12%.
In the same order, the values of `CCCn1c(=O)c2ccc(C(=O)NC3CCCC3)cc2n2c(=O)n(CC(=O)Nc3cccc(CC)c3)nc12` are 7.8%, 2.13%, 12.8%, 7.4% and 7.75%.
In the same order, the values of `O=C(c1ccccc1)N1Cc2[nH]cnc2C[C@H]1c1nc(-c2ccc(Cl)cc2)no1` are -12.8%, -5.78%, -7.9%, -24.4% and -5.91%.
For `Cc1ccc(N2C(=O)c3cc4sccc4n3CC2(C)C(=O)NC2CCC(C)CC2)c(C)c1` (stereo not drawn), the activity change, negative = inhibition is 2.68% in assay [1]; 0.786% in assay [2]; 4.62% in assay [3]; 0.597% in assay [4]; -2.61% in assay [5].
Take `CCc1ccc(NC(=O)c2cc3n(n2)CC(C)(C(=O)NC2CCCCCC2)N(C)C3=O)cc1` (stereo not drawn): the activity change, negative = inhibition in assay [1] is -0.025%; in assay [2] it was 4.3%; in assay [3], 6.34%; in assay [4], 1.61%; in assay [5], 1.75%.
In the same order, the values of `C[C@@H]1O[C@@H](O[C@H]2[C@H](OC(=O)[C@]34CCC(C)(C)C[C@H]3C3=CCC5[C@@]6(C)C[C@@H](O)[C@@H](O)[C@@](C)(CO)C6[C@H](O)C[C@@]5(C)[C@]3(C)CC4)OC[C@H](O)[C@@H]2O)[C@H](O)[C@H](O)[C@H]1O[C@@H]1OC[C@@H](O)[C@H](O[C@H]2O[C@H](C)[C@@H](O)[C@H](O)[C@@H]2O)[C@H]1O` (stereo partly drawn) are 4.51%, 17.1%, 13.1%, 2.89% and 10.7%.
`Clc1ccc(Nc2nc3ccccc3c3nc(C4CCCCC4)[nH]c23)cc1Cl`: the activity change, negative = inhibition in assay [1] was -4.37%; in assay [2] it was -10%; in assay [3] it was 4.58%; in assay [4], -24.1%; in assay [5], -5.24%.
In the same order, the values of `Cc1cc(C(=O)N2CC(F)(F)C[C@H]2c2nnc(C)o2)no1` are 0.622%, 1.92%, 2.56%, -1.33% and 1.52%.
In the case of `CCOC(=O)c1cc2n(n1)CC(C)(C(=O)NC1CCCCC1)N(Cc1cccc(C)c1)C2=O` (stereo not drawn), the activity change, negative = inhibition in assay [1] is 2%; in assay [2], 0.404%; in assay [3], 0.677%; in assay [4], 6.91%; in assay [5], -0.549%.
Consider `COc1cc(OC)c(/C=C2\C(=O)Nc3ccccc32)c(OC)c1`, for which the activity change, negative = inhibition in assay [2] is 1.47%; in assay [4], -34%; in assay [5], 0.744%.
Regarding `CCC1c2ccc(C)n2CCN1C(=O)Nc1ccc(C)cc1Cl` (stereo not drawn), the activity change, negative = inhibition in assay [1] is 0.713%; in assay [2], 0%; in assay [3] it was 5.34%; in assay [4] it was 1.15%; in assay [5], 1.31%.
In the same order, the values of `O=C(OC[C@H]1O[C@@H](Oc2ccccc2COC(=O)C2(O)C=CCCC2O)[C@H](O)[C@@H](O)[C@@H]1O)c1ccccc1` (stereo partly drawn) are -4.56%, 4.39%, 2.39%, -8.3% and 2.01%.
The matching figures for `CC(=O)N1CCN(C(=O)c2ccc3oc(-c4ccncc4Cl)nc3c2)CC1`: -4.35%, 0.959%, -1.48%, -7.52% and -0.448%.
On to `CC1CCC2(CO)C(C(=O)O)=CCCC2C1(C)CCc1ccoc1` (stereo not drawn), for which the activity change, negative = inhibition in assay [1] is -3.44%; in assay [2], -4.57%; in assay [3], 5.14%; in assay [4], -18.5%; in assay [5], -6.9%.
As for `CC(C)n1c(=O)c2ccc(C(=O)NC3CCCC3)cc2n2c(=O)n(Cc3cccc(F)c3)nc12`, the activity change, negative = inhibition in assay [1] was 2.57%; in assay [2], 0%; in assay [3], 9.18%; in assay [4] it was 6.1%; in assay [5], 5%.
In the same order, the values of `COc1ccccc1NC(=O)CSc1nnc2n(Cc3ccc(F)cc3)c(=O)c3ccccc3n12` are 6.73%, 1.56%, 14.1%, 8.09% and 7.99%.
The matching figures for `CC(=O)[C@H]1CC[C@H]2[C@@H]3C=CC4=CC(=O)CC[C@@]4(C)[C@@H]3CC[C@]12C`: 2.98%, -1.03%, -2.45%, -15.3% and -6.75%.
As for `CCOc1ccc(Nc2nc(-c3c(C)nc4ccccn34)cs2)cc1`, the activity change, negative = inhibition in assay [1] was -2.56%; in assay [2] it was 1.09%; in assay [3] it was 3.69%; in assay [4], -29%; in assay [5], -2.28%.
